Laboratory results reported in article PMC6919601, “Identification of Plasmodium dipeptidyl aminopeptidase allosteric inhibitors by high throughput screening” (PLoS ONE, 2019).
Screen size: about 110,000 compounds; about 230 (0.21%) showed an effect of 50% or more. The list shows a part of the results.

biological target: DPAP1 (Plasmodium falciparum, UniProt Q8IIJ9); experiment: primary screen, percent inhibition; read by cleavage of a fluorogenic dipeptide substrate; higher = more effect of the substance; parameters: species or system P. falciparum D10 trophozoite lysates; single well
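Also: 30 min substrate incubation versus DMSO and 10 µM JCP410 controls.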

DPAP1, sequence (Q8IIJ9 whole entry, looked up): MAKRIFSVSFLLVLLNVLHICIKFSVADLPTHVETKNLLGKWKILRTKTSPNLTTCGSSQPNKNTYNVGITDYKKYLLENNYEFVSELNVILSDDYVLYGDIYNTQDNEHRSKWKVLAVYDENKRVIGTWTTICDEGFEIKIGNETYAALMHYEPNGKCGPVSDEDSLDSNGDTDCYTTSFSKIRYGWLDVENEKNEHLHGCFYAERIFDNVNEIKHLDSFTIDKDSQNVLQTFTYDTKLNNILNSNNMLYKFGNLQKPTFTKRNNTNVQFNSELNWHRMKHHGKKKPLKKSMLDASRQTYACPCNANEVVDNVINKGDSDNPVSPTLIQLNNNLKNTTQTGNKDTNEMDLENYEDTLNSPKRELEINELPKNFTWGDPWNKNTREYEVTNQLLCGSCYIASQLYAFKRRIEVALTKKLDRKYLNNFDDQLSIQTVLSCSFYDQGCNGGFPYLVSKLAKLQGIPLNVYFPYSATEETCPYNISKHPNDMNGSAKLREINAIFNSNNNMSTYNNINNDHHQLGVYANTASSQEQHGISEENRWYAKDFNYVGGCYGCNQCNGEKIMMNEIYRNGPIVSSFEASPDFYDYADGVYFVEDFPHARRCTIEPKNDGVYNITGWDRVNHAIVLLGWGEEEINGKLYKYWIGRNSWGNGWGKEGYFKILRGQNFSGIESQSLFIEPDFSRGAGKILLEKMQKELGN

Row | SMILES | % Inhibition @ 10 uM [%]
1 | CCOc1ccccc1N1CCN(C(=O)C2CC3CCC2C3)CC1 (stereo not shown) | 4.88
2 | O=C(Nc1ccc(Cl)c(Cl)c1)c1cc2ccccc2cc1O | 2.54
3 | CCc1ccc(CNCC2CCCO2)cc1 (stereo not shown) | 3.92
4 | COc1ccc(C(=O)N(Cc2ccccc2)c2ccccn2)c(OC)c1 | -10.6
5 | O=C1CC(NCc2ccc3c(c2)OCO3)C(=O)N1c1ccc(Br)cc1 (stereo not shown) | -4.39
6 | O=C(NCCCN1CCOCC1)C1c2ccccc2C(=O)N(C2CCCC2)C1c1cccs1 (stereo not shown) | -5.3
7 | O=C1C2CC=CCC2C(=O)N1CNc1cccc(Cl)c1 (stereo not shown) | 3.65
8 | CC(C)(C)c1ccc(-c2noc(CCC(=O)NCc3ccco3)n2)cc1 | -3.12
9 | c1ccc(-c2n[nH]c(-c3ccccn3)n2)nc1 | 0.884
10 | O=C(O)c1ccccc1-c1ccccc1C(=O)Nc1cnc(O)nc1O | -6.93
11 | Cn1c(=O)c2c(ncn2CC(=N)N2CCOCC2)n(C)c1=O | 1.62
12 | Cc1ccc(-n2nc3c(N4CCC(C(=O)N5CCC6(CC5)OCCO6)CC4)nnc(C)c3c2C)cc1 | 10.7
13 | Cc1cc(C)cc(OCC(=O)Nc2nc(C)c(C)s2)c1 | 3.26
14 | CC(=O)Nc1ccc(N2C(=O)C(O)=C(C(=O)c3ccc(Cl)cc3)C2c2ccccc2F)cc1 (stereo not shown) | -0.545
15 | CCOc1ccc(NC(=O)Nc2ccc3nsnc3c2)cc1 | -4.14
16 | COc1cc(Cl)cc(/C=C/c2ccc3cccc(O)c3n2)c1OC | -0.85
17 | Cc1nnc2c(Oc3ccc(Cl)cc3)nc3ccccc3n12 | -5.28
18 | CC[C@H](NC(=O)C(CC(=O)N1CCOCC1)CS(=O)(=O)Cc1ccccc1)C(=O)c1nc2ccccc2s1 (stereo partly shown) | 2.86
19 | CC1Cc2cc(C(=O)C3=C(O)C(=O)N(CC4CCCO4)C3c3ccccc3)ccc2O1 (stereo not shown) | -5.49
20 | O=C(COc1ccccc1Cl)Nc1ccc(S(=O)(=O)N2CCc3ccccc32)cc1 | -6.05
21 | CCOC(=O)N1CCN(C(=O)NC2(C(F)(F)F)Oc3ccc(Cl)cc3O2)CC1 (stereo not shown) | 0.457
22 | O=C1NN(c2ccc(Cl)c(Cl)c2)C(=O)/C1=C/c1ccc(N2CCOCC2)cc1 | -5.11
23 | O=C(Nc1ccc(Cl)c(Cl)c1)c1ccco1 | 6.09
24 | COc1cccc(OCC(O)CN2CCN(c3ccccn3)CC2)c1 (stereo not shown) | 3.65
25 | O=C(NCC1CCCO1)C1CC(c2ccc(F)cc2)=NO1 (stereo not shown) | 1.24

Row | SMILES | % Inhibition @ 10 uM [%]
26 | Cc1nnc2sc(-c3cccc(F)c3)nn12 | -2.91
27 | COC(=O)[C@@H](CC(C)C)NC(=O)[C@H]1CCCN1C#N | 0.744
28 | Cc1cc(C)c(C)c(S(=O)(=O)NCC(=O)N2CC(C)CC(C)C2)c1C (stereo not shown) | 0.709
29 | CC(C)c1ccc(N(CC(=O)N2CCCCCC2)S(C)(=O)=O)cc1 | -14.5
30 | CC(C)(C)NCc1cccn1-c1sc2c(c1C#N)CCCC2 | 3.01
31 | Cn1c(C(=O)N2CCCC(C(=O)N3CCN(C(=O)c4ccco4)CC3)C2)cc2sccc21 (stereo not shown) | -0.883
32 | Nc1ccccc1C(=O)Nc1ccccc1Cl | -8.06
33 | CC1CCC(N2CCCC(C(N)=O)C2)CC1 (stereo not shown) | -1.5
34 | CC(=O)N(CN1C(=O)c2cc(Cl)c(Cl)cc2C1=O)c1ccccc1 | -0.28
35 | CCC(C)Nc1nc2c(S(=O)(=O)c3cc(C)ccc3C)nnn2c2ccccc12 (stereo not shown) | 7.82
36 | COc1cccc(C2CC(c3ccccc3C)n3ncnc3N2)c1 (stereo not shown) | 1.73
37 | COc1c(S(=O)(=O)Nc2cccc(-c3cn4ccsc4n3)c2)ccc(Cl)c1Cl | 7.05
38 | Oc1ccccc1-c1nc(Nc2cccc(F)c2)c2ccccc2n1 | -1.48
39 | Cc1nc2ccc(S(=O)(=O)NC(CC(C)C)C(=O)N3CCC(Cc4ccccc4)CC3)cc2s1 (stereo not shown) | -4.97
40 | Cn1c2c(c(=O)n(C)c1=O)C(c1ccc(F)cc1F)C(C#N)=C(N)O2 (stereo not shown) | 1.4
41 | Cc1cc(-c2ccccc2)n2ncc(-c3ccc(Cl)cc3)c2n1 | 1.72
42 | CCN1C=C(C(=O)OC)C(c2cccc(C)c2)C(C(=O)OC)=C1 | 0.238
43 | Cc1ccc(CN(C(=O)C(C)Oc2ccccc2Cl)C2CCS(=O)(=O)C2)o1 (stereo not shown) | 0.362
44 | Cc1ccc(CNC(=O)C2CSC(c3cccs3)=N2)cc1 (stereo not shown) | -0.406
45 | Cc1ccccc1NC(=O)C1C(=O)N(CCO)C2(C)CC1c1ccccc1O2 (stereo not shown) | 4.03
46 | O=C(CN1C(=O)c2cccc3cccc1c23)Nc1ccc(F)cc1 | 2.87
47 | CCOC(=O)c1c(C)c(-c2ccccc2)n(CC(=O)NC(C)CC)c1C (stereo not shown) | 3.32
48 | CNS(=O)(=O)c1cn(CC(=O)Nc2cc(C)ccn2)cc1S(=O)(=O)NC | -3.99
49 | O=S(=O)(Nc1ccc(F)cc1)c1ccc(F)cc1 | 3.85
50 | O=C(Nc1ccccc1Oc1ccccc1)C(F)(F)F | -1.96

Row | SMILES | % Inhibition @ 10 uM [%]
51 | COc1ccc(-c2onc(C)c2C)cc1S(=O)(=O)NCC1CCCO1 (stereo not shown) | 10.1
52 | O=C(NCc1ccc2c(c1)OCO2)C(NS(=O)(=O)c1cccc2nsnc12)c1ccccc1 (stereo not shown) | 5.21
53 | COCCCNC(=O)CN(Cc1ccccc1)S(=O)(=O)c1ccc(Cl)cc1 | -1.6
54 | CCC1CCCCN1CCCNC(=O)c1cn(CC)c(=O)c2cc(OC)c(OC)cc12 (stereo not shown) | -2.49
55 | O=S(=O)(NCCc1c[nH]c2ccccc12)c1ccc(-n2cnnn2)cc1 | -6.56
56 | O=C(C1CC(=O)N(C2CCCC2)C1)N1CCC(c2c[nH]c3ccccc23)(c2c[nH]c3ccccc23)CC1 (stereo not shown) | -6.01
57 | Cc1ccc2nc(NCCO)c3nnnn3c2c1 | -9.49
58 | O=C(Cn1ccc2cc(S(=O)(=O)N3CCCC3)ccc21)NCCC1=CCCCC1 | -9.08
59 | CN1CCN(S(=O)(=O)c2cc(Cl)ccc2Cl)CC1 | 5.56
60 | COc1ccc(C2CC(C(F)(F)F)n3ncc(C(=O)O)c3N2)cc1 (stereo not shown) | -0.67
61 | Cc1cccc(CCNC(=O)CN2CC(c3ccccc3)CC2=O)c1 (stereo not shown) | -2.27
62 | CCc1cccc(-n2nnc(-c3nc(-c4ccc5c(c4)OCO5)no3)c2N)c1 | -5.65
63 | C=CCS(=O)(=O)c1ccc2ccccc2c1 | -2.45
64 | CN(C)c1ccc2c(c1)C(=O)c1ccccc1C2=O | 2.54
65 | C=CCN1C(=O)/C(=C2/Sc3ccccc3N2C)S/C1=N\c1c(C)n[nH]c1C | 12.7
66 | Cc1ccc(S(=O)(=O)n2nc(C)cc2N)cc1 | -7.33
67 | Cc1cc(Cl)ccc1OCC(=O)NC1CCCCCC1 | 2.05
68 | COc1cccc(C(=O)Cn2nnc3sc4c(c3c2=O)CCC(C)C4)c1 (stereo not shown) | -2.71
69 | COc1ccc(OC)c(C(=O)c2oc3ccccc3c2NC(=O)CN2CCCC2)c1 | 0.983
70 | O=C(O)c1ccc(CSc2nnc(-c3ccco3)n2-c2ccccc2)cc1 | 1.13
71 | NCC12CC3CC(C1)CC(CC(=O)O)(C3)C2 | -4.35
72 | COc1ccc(CN2COc3cc(C)c(Cl)c(C)c3C2)cc1 | 2.24
73 | CCCc1nnc(N2C(=O)c3oc4ccc(F)cc4c(=O)c3C2c2ccccc2F)s1 (stereo not shown) | 1.74
74 | COc1ccc(CC(=O)Nc2sc3c(c2C#N)CCCC3)cc1OC | -3.46
75 | CCC(C)NC(=O)c1oc2ccc(S(=O)(=O)N3CCCC(C)C3)cc2c1C (stereo not shown) | 8.16

Row | SMILES | % Inhibition @ 10 uM [%]
76 | CCOc1ccc(NC(=O)c2c(N)sc3c2CCC(C)C3)cc1 (stereo not shown) | 6.43
77 | CCCc1nc2c3ccccc3nc(S)n2n1 | 6.07
78 | Cc1noc2ncnc(N3CCCC(C(=O)NCCc4ccc(Cl)cc4)C3)c12 (stereo not shown) | 13.8
79 | CCn1c(SCC(=O)Nc2ccc(Cl)cc2)nc2c1c(=O)n(C)c(=O)n2C | -0.99
80 | O=C(O)C1Cc2c([nH]c3ccccc23)C(c2ccccc2[N+](=O)[O-])N1 (stereo not shown) | -2.72
81 | COc1ccc(S(=O)(=O)N2CCC(Cc3ccccc3)CC2)cc1 | 0.215
82 | CC1=C(C(=O)N2CCN(Cc3ccccc3)CC2)C2(CCCCC2)OC1=O | 1.55
83 | CC(C)(C)C1CCc2c(sc(NC(=O)c3cccs3)c2C(N)=O)C1 (stereo not shown) | -3.77
84 | Cc1nnc2c(NCCCO)nc3ccccc3n12 | -2.88
85 | CCc1c(CN2CC(C)CC(C)C2)csc1C (stereo not shown) | 4.14
86 | Cc1cc(Cl)ccc1OCC(=O)Nc1ccccc1 | 0.408
87 | O=C(c1ccc([N+](=O)[O-])o1)N1CCN(Cc2ccccc2)CC1 | -2.42
88 | O=C1C2C3CCC(O3)C2C(=O)N1c1cccc(O)c1 (stereo not shown) | 1.93
89 | O=C(CCCC(=O)N1CCCc2ccccc21)N1CCCc2ccccc21 | 2.67
90 | CC1CCN(C(=O)CN(C)S(=O)(=O)c2ccc3[nH]c(-c4ccccc4)nc3c2)CC1 | -8.49
91 | Cc1ccccc1OCC(O)CN1CCN(CC(O)COc2ccccc2C)CC1 (stereo not shown) | -0.053
92 | CN(Cc1ccccc1)C(=O)CN(c1cccc(F)c1)S(C)(=O)=O | -0.512
93 | CC(=O)N1CCN(C2CCc3ccccc3C2)CC1 (stereo not shown) | 0.217
94 | CC(C)Oc1ccc(C(=O)Nc2ccccc2Br)cc1 | -6.05
95 | O=S(=O)(NCc1ccc2c(c1)OCO2)c1ccc(-n2cccn2)cc1 | -9.58
96 | COc1ccc(O)c(CN2CCC(N3CCCCC3)CC2)c1 | 3.24
97 | Cc1nc(Oc2cccc3cccnc23)c2c3c(sc2n1)CCC3 | 1.67
98 | CC(C)N(Cc1ccccc1)C(=O)c1cc(-c2ccccc2)[nH]n1 | -4.27
99 | Cc1[nH]c2ccc(OC(F)(F)F)cc2c1CCN1C(=O)c2ccc(C(=O)O)cc2C1=O | 0.9
100 | CCC(C)NC(=O)CN1C(=O)CSc2c1c(C)nn2-c1ccccc1 (stereo not shown) | -0.298
